Test results taken from the antibiotic and cytotoxicity screens of Wong et al. (2023).
Some of the results follow.

Assays:
HSkMC = human skeletal muscle cells; assay: cytotoxicity call (relative viability < 0.9); settings: 10 µM
HepG2 = assay: cytotoxicity call (relative viability < 0.9); settings: 10 µM
S. aureus RN4220 = assay: growth inhibition call (relative growth <= 0.2); settings: 50 µM

| SMILES | cytotoxicity call (HSkMC) | cytotoxicity call (HepG2) | growth inhibition call (S. aureus RN4220) |
| --- | --- | --- | --- |
| Cc1ccc(S(=O)(=O)N(C)C[C@H]2Oc3ccc(NC(=O)NC(C)C)cc3C(=O)N([C@H](C)CO)C[C@H]2C)cc1 | inactive | inactive | inactive |
| Cc1noc(C)c1NC(=O)Nc1cccc2c1O[C@@H](CN(C)Cc1ccc(C(=O)Nc3ccccc3N)cc1)[C@H](C)CN([C@H](C)CO)C2=O | inactive | inactive | inactive |
| CN1CCN(C(=O)C[C@H]2CC[C@@H]3[C@H](COC[C@@H](O)CN3C(=O)Nc3ccc4c(c3)OCO4)O2)CC1 | inactive | inactive | inactive |
| O=C(C[C@@H]1C=C[C@H](NC(=O)Cc2ccccn2)[C@H](CO)O1)NCCc1ccncc1 | inactive | inactive | inactive |
| O=C(C[C@@H]1CC[C@@H](NC(=O)CN2CCOCC2)[C@@H](CO)O1)NCCc1ccncc1 | inactive | inactive | inactive |
| C[C@@H]1CN([C@@H](C)CO)C(=O)c2cccc(NC(=O)c3cnccn3)c2O[C@H]1CN(C)Cc1ccc2c(c1)OCO2 | inactive | inactive | inactive |
| COCCN(Cc1ccc(OC)cc1)c1c(C)nc2ccc(C(=O)Nc3ccc(Cl)c(Cl)c3)cn12 | inactive | inactive | inactive |
| CC(=O)N1CCc2nc(C(N)=O)sc2CC1 | inactive | inactive | inactive |
| C[C@@H]1CN([C@@H](C)CO)C(=O)c2cccc(NC(=O)CCCCCC(=O)Nc3ccccc3N)c2O[C@@H]1CN(C)S(C)(=O)=O | inactive | inactive | inactive |
| CN1C(=O)C[C@@H]2[C@@H]1CCN2C(=O)c1csnn1 | inactive | inactive | inactive |
| CC(Cc1ccc(O)c(O)c1)(NN)C(=O)O (stereo unspecified) | inactive | active | inactive |
| C[C@@H]1CCCCO[C@H](CN(C)C(=O)Nc2cccc3ccccc23)[C@H](C)CN([C@@H](C)CO)C(=O)c2cc(NC(=O)NC3CCCCC3)ccc2O1 | inactive | active | inactive |
| CC(C)NC(=O)Nc1ccc2c(c1)C(=O)N([C@@H](C)CO)C[C@H](C)[C@@H](CN(C)Cc1ccc(Cl)c(Cl)c1)OCCCC[C@H](C)O2 | inactive | inactive | inactive |
| Cc1cc(C(=O)Nc2cccc3c2O[C@@H](CN(C)S(=O)(=O)c2cn(C)cn2)[C@@H](C)CN([C@H](C)CO)C3=O)n(C)n1 | inactive | inactive | inactive |
| CC1(C)SC2C(NC(=O)C(N)c3ccc(O)cc3)C(=O)N2C1C(=O)O (stereo unspecified) | inactive | inactive | active |
| COc1ccc(S(=O)(=O)Nc2ccc3c(c2)C(=O)N([C@@H](C)CO)C[C@H](C)[C@H](CN(C)CC2CC2)O3)cc1 | inactive | inactive | inactive |
| C[C@@H]1CCCCO[C@H](CN(C)S(=O)(=O)c2ccccc2)[C@H](C)CN([C@@H](C)CO)C(=O)c2cc(NC(=O)c3ccccc3)ccc2O1 | inactive | inactive | inactive |
| CN1CCN(C(=O)C[C@H]2CC[C@H]3[C@H](COc4ccc(NC(=O)c5cccs5)cc4C(=O)N3C)O2)CC1 | inactive | inactive | inactive |
| Cc1cc(N)n(-c2nc(=O)c(C)c(C)[nH]2)n1 | inactive | inactive | inactive |
| C[C@H](CO)N1C[C@H](C)[C@H](CN(C)S(=O)(=O)c2ccc(Oc3ccccc3)cc2)OCc2cn(nn2)CCCC1=O | inactive | inactive | inactive |
| COCC(=O)Nc1ccc2c(c1)OC[C@@H](C)N(Cc1ccccc1OC)C[C@H](C)[C@H](OC)CN(C)C2=O | inactive | inactive | inactive |
| C[C@@H]1CN([C@H](C)CO)C(=O)c2cc(NC(=O)Nc3ccc(C(F)(F)F)cc3)ccc2O[C@@H]1CN(C)S(=O)(=O)c1ccc(Cl)cc1 | active | active | inactive |
| COc1ccc2nc3ccc(Cl)cc3c(SCCCN)c2c1 | inactive | inactive | inactive |
| Cc1noc(C)c1NC(=O)Nc1ccc2c(c1)C(=O)N([C@@H](C)CO)C[C@H](C)[C@@H](CN(C)S(C)(=O)=O)O2 | inactive | inactive | inactive |
| C[C@@H]1CN([C@H](C)CO)C(=O)c2cc(-c3ccc(C(=O)N(C)C)cc3)cnc2O[C@H]1CN(C)C(=O)c1ccncc1 | inactive | inactive | inactive |
| O=C(C[C@@H]1CC[C@@H]2[C@H](COC[C@H](O)CN2S(=O)(=O)c2cccc(F)c2)O1)NCc1ccc2c(c1)OCO2 | inactive | inactive | inactive |
| Cc1noc(C)c1S(=O)(=O)Nc1ccc2c(c1)C(=O)N([C@@H](C)CO)C[C@H](C)[C@@H](CN(C)CC1CCCCC1)OCCCC[C@H](C)O2 | inactive | inactive | inactive |
